Test results from patent US20220267409A1 (KAHR MEDICAL, published 2022).

Assays:
[1] = target: T1, BSA (UniProt P02769); test: sandwich ELISA: plate coated with BSA 10 ug/mL, purified heterodimer 0-50 ug/mL, detection with 41BB-biotin and streptavidin-HRP
T1 construct: Negative control coating of the ELISA; also called BSA only control plates
Procedure: (§1) Supernatants containing the heterodimer TSP214 or control supernatant (FIG. 28A) or purified TSP215 heterodimer (FIGS. 28B-C) were incubated in HLA-G, CD47 or BSA pre-coated 96-wells plates. Binding was detected by incubation with 41BB-biotin, followed by streptavidin-HRP and TMB substrate according to standard ELISA protocol using a plate reader at 450 nm, with reference at 620 nm.
(§2) Methods—Ninety-six-wells plates were pre-coated by incubating overnight at 4° C. with a recombinant CD47 protein, PDL1 protein, HLA-G protein or a mix of two proteins at equal-molar quantity. Following blocking and washing, serially diluted supernatant containing the produced PD1-4-3xsc1BBL, SIRPα-PD1-3xsc4-1BBL, 2xLILRB2-3xsc4-1BBL or LILRB2-SIRPα-3xsc4-1BBL heterodimers were added to the relevant pre-coated wells. Following an additional washing step, biotinylated 4-1BB or rabbit anti-anti-SIRPα antibody was added and allowed to bind to the 4-1BBL arm or SIRPα arm, respectively, of the heterodimer. The plates were washed again and streptavidin-HRP or goat anti-rabbit IgG antibody-HRP was added. Detection was effected with a TMB substrate according to standard ELISA protocol using a plate reader (Thermo Scientific, Multiscan FC).

[2] = target: T2, biotin-conjugated human recombinant 4-1BB protein (GenScript) (human, UniProt Q07011 24-186, biotin-conjugated); test: sandwich ELISA: plate coated with HLA-G 5 ug/mL, purified heterodimer 0-50 ug/mL, detection with 41BB-biotin and streptavidin-HRP
T2 construct: Detection reagent of the sandwich ELISA; also called biotinylated 4-1BB; 41BB-biotin
Procedure: as §1, §2
No binding was detected to control plates coated with BSA only.

[3] = target: T3, human 4-1BB expressed on HT1080-4-1BB cells (human, UniProt Q07011 24-255); test: flow cytometry on HT1080-4-1BB cells (4-1BB and CD47), dilutions of supernatant, with or without anti-CD47 blocking antibody, detection with anti-LILRB2 antibody
T3 construct: whole, on cells; also called HT1080 4-1BB overexpressing cells
Procedure: (§3) The binding of the heterodimer to the 4-1BB and CD47 expressing cell line was determined following incubation of the cells with the heterodimer by immuno-staining of its LILRB2 domain using an anti-LILRB2 antibody, followed by flow cytometric analysis. For specificity testing, binding was determined in the absence or presence of an anti-CD47 blocking antibody, anti 4-1BB blocking antibody or a combination of both blocking antibodies.
(§4) Methods—Cells were incubated with serial dilutions of the produced heterodimers-containing supernatants for 20-30 minutes at 4° C., followed by immuno-staining with an antibody against PD1 or LILRB2 and analyzed by flow cytometry. In some cases, cells underwent pre-incubation with anti CD47 blocker antibody or anti-4-1BB blocker antibody prior to the incubation with the supernatants.

[4] = target: T4, human CD47 expressed on cells (CHO-K1-CD47; endogenous on DLD1 and HT1080 cells) (human, UniProt Q08722); test: flow cytometry on HT1080-4-1BB cells (4-1BB and endogenous CD47), dilutions of supernatant, anti-4-1BB blocking antibody alone or with anti-CD47 blocking antibody, detection with anti-LILRB2 antibody
T4 construct: whole, on cells
Procedure: as §3, §4

Chain of BSA (P02769 25-607 limits assumed): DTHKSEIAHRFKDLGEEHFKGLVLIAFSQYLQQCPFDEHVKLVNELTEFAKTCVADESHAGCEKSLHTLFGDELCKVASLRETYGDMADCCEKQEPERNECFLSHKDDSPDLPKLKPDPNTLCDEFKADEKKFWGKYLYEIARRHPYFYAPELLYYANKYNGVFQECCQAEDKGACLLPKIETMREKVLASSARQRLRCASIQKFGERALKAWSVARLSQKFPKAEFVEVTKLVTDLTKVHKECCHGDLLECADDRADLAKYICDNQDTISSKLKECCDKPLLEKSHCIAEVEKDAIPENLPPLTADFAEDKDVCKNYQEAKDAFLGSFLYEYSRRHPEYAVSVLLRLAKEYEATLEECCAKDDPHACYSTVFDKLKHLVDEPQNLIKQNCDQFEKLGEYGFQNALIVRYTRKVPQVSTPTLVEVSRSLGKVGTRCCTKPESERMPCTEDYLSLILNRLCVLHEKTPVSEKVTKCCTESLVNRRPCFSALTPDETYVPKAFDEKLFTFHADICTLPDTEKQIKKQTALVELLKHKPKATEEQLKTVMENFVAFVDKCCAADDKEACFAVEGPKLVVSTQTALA
Chain of UniProt Q08722 (Q08722 19-323): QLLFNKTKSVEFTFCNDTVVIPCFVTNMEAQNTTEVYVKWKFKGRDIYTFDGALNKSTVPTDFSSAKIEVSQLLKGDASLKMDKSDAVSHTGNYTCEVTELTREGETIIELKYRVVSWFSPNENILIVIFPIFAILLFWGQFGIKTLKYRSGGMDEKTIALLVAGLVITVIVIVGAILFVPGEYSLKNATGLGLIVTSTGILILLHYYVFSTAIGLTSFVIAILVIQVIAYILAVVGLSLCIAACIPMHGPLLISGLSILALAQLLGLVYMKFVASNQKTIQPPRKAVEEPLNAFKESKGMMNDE

binding result [1]: no binding (tested: 50 ug/mL)
binding result [2]: binds
binding result [3]: binds
binding result [4]: binds
B1: LILRB2-SIRPα-Fc-3xsc4-1BBL heterodimer TSP215 (SEQ ID NOs: 138 and 85) (Fc fusion)
chain 1: QTGTIPKPTLWAEPDSVITQGSPVTLSCQGSLEAQEYRLYREKKSASWITRIRPELVKNGQFHIPSITWEHTGRYGCQYYSRARWSELSDPLVLVMTGAYPKPTLSAQPSPVVTSGGRVTLQCESQVAFGGFILCKEGEEEHPQCLNSQPHARGSSRAIFSVGPVSPNRRWSHRCYGYDLNSPYVWSSPSDLLELLVPGVSKKPSLSVQPGPVVAPGESLTLQCVSDVGYDRFVLYKEGERDLRQLPGRQPQAGLSQANFTLGPVSRSYGGQYRCYGAHNLSSECSAPSDPLDILITGQIRGTPFISVQPGPTVASGENVTLLCQSWRQFHTFLLTKAGAADAPLRLRSIHEYPKYQAEFPMSPVTSAHAGTYRCYGSLNSDPYLLSHPSEPLELVVSGGGGSGGGGSGGGGS[human IgG4 Fc with S228P L235E Y349C T366W (EU numbers) omitted here]
chain 2: [about 350 residues omitted here]GGGGSGGGGSESKYGPPCPPCPAPEFEGGPSVFLFPPKPKDTLMISRTPEVTCVVVDVSQEDPEVQFNWYVDGVEVHNAKTKPREEQFNSTYRVVSVLTVLHQDWLNGKEYKCKVSNKGLPSSIEKTISKAKGQPREPQVYTLPPSQCEMTKNQVSLSCAVKGFYPSDIAVEWESNGQPENNYKTTPPVLDSDGSFFLVSRLTVDKSRWQEGNVFSCSVMHEALHNHYTQKSLSLSLGKGGGGSGGGGSAASPRLREGPELSPDDPAGLLDLRQGMFAQLVAQNVLLIDGPLSWYSDPGLAGVSLTGGLSYKEDTKELVVAKAGVYYVFFQLELRRVVAGEGSGSVSLALHLQPLRSAAGAAALALTVDLPPASSEARNSAFGFQGRLLHLSAGQRLGVHLHTEARARHAWQLTQGATVLGLFRVTPEIPAGLPSPRSEGGGGSGGGGSGGGGSAASPRLREGPELSPDDPAGLLDLRQGMFAQLVAQNVLLIDGPLSWYSDPGLAGVSLTGGLSYKEDTKELVVAKAGVYYVFFQLELRRVVAGEGSGSVSLALHLQPLRSAAGAAALALTVDLPPASSEARNSAFGFQGRLLHLSAGQRLGVHLHTEARARHAWQLTQGATVLGLFRVTPEIPAGLPSPRSEGGGGSGGGGSGGGGSAASPRLREGPELSPDDPAGLLDLRQGMFAQLVAQNVLLIDGPLSWYSDPGLAGVSLTGGLSYKEDTKELVVAKAGVYYVFFQLELRRVVAGEGSGSVSLALHLQPLRSAAGAAALALTVDLPPASSEARNSAFGFQGRLLHLSAGQRLGVHLHTEARARHAWQLTQGATVLGLFRVTPEIPAGLPSPRSE
notes: Knob-into-hole hIgG4 Fc heterodimer made in Expi293F cells; also called DSP215; LILRB2-SIRPα-sc3x4-1BBL heterodimer
